# Assay results taken from the antibiotic and cytotoxicity screens of Wong et al. (2023).
# This is one part of the list.
# Key:
# HSkMC = human skeletal muscle cells; experiment: cytotoxicity call (relative viability < 0.9); conditions: 10 µM
# S. aureus RN4220 = experiment: growth inhibition call (relative growth <= 0.2); conditions: 50 µM
Compound,cytotoxicity call (HSkMC),growth inhibition call (S. aureus RN4220)
CCCCCCCCCCCCCCCCCCCCCCCCCCCCO,inactive,inactive
COC(=O)[C@@H]1C[C@H](C#N)N[C@@H]1c1ccccn1,inactive,inactive
C[C@H]1CN([C@@H](C)CO)C(=O)Cc2cc(NC(=O)C3CCCCC3)ccc2O[C@H]1CN(C)Cc1ccc(C(F)(F)F)cc1,inactive,inactive
COC(=O)C1=C2CC[C@H](CO)NC(=O)N[C@@H](Cc3ccccc3)C(=O)NCc3cn(nn3)C[C@H](Cc3ccccc3)NC(=O)c3oc(c(C(=O)OC)c3C(=O)OC)CC[C@H](CO)NC(=O)N[C@@H](Cc3ccccc3)C(=O)NCc3cn(nn3)C[C@H](Cc3ccccc3)NC(=O)C(=C1C(=O)OC)O2,inactive,inactive
CC(C)CC#Cc1ccc2c(c1)O[C@@H](CN(C)C(=O)c1cccnc1)[C@@H](C)CN([C@H](C)CO)S2(=O)=O,inactive,inactive
C[C@H]1CN([C@@H](C)CO)C(=O)c2cccc(NC(=O)C3CCCCC3)c2O[C@@H]1CN(C)Cc1ccc(C(F)(F)F)cc1,inactive,inactive
Cc1ccc(S(=O)(=O)N(C)C[C@H]2Oc3c(NC(=O)c4cnccn4)cccc3C(=O)N([C@@H](C)CO)C[C@@H]2C)cc1,inactive,inactive
C[C@@H]1CN([C@@H](C)CO)C(=O)Cc2cc(NS(=O)(=O)c3ccc(F)cc3)ccc2O[C@@H]1CN(C)S(=O)(=O)c1ccc(F)cc1,inactive,inactive
CCc1cc(C(N)=O)c(N)s1,inactive,inactive
OC[C@H]1CC[C@@H]2O[C@H](CCc3ccc(C#Cc4ccccc4)cc3)[C@H](n3cc(-c4ccccc4)nn3)C[C@@H]2O1,active,inactive
COc1ccc(S(=O)(=O)Nc2ccc3c(c2)C(=O)N([C@H](C)CO)C[C@H](C)[C@@H](CN(C)C(=O)Nc2ccc4c(c2)OCO4)OCCCC[C@@H](C)O3)cc1,inactive,inactive
CC(=O)O[C@H]1[C@H](O)[C@H](O)[C@H](O[C@@H]2[C@@H](Oc3cc(O)c4c(=O)cc(-c5ccc(O)c(O)c5)oc4c3)O[C@@H](C(=O)O)[C@H](O)[C@@H]2O)O[C@@H]1C,inactive,inactive
COc1ccc(S(=O)(=O)N(C)C[C@H]2Oc3cc(-c4ccccc4OC)ccc3S(=O)(=O)N([C@H](C)CO)C[C@@H]2C)cc1,inactive,inactive
C[C@H]1CC/C=C\[C@H]2O[C@@]34C=CCN(Cn5nnc6ccccc65)C(=O)[C@H]3N(CCCO)C(=O)[C@@H]4[C@@H]2C(=O)O1,inactive,inactive
CC(C)NC(=O)Nc1cccc2c1O[C@H](CN(C)C(=O)Nc1ccc3c(c1)OCO3)[C@H](C)CN([C@H](C)CO)C2=O,inactive,inactive
COc1ccc(S(=O)(=O)N(C)C[C@H]2Oc3ccc(NC(=O)Cc4ccccc4)cc3C(=O)N([C@H](C)CO)C[C@@H]2C)cc1,active,inactive
CCC(=O)c1ccc(O)cc1,inactive,inactive
C[C@H](CO)N1C[C@H](C)[C@@H](CN(C)S(=O)(=O)c2ccccc2)Oc2c(NC(=O)C3CC3)cccc2C1=O,inactive,inactive
CC(=O)N[C@@H](CC(C)C)C(=O)O,inactive,inactive
C[C@H]1CN([C@@H](C)CO)C(=O)c2cc(NC(=O)Nc3ccc(F)cc3)ccc2O[C@@H]1CN(C)S(=O)(=O)c1cn(C)cn1,inactive,inactive
C[C@H](CO)N1C[C@H](C)[C@H](CN(C)Cc2ccc(-c3ccccc3)cc2)Oc2ccc(NC(=O)Cn3cnnn3)cc2C1=O,inactive,inactive
COc1ccc(C(=O)Nc2ccc3c(c2)C(=O)N(C)[C@H]2CC[C@H](CC(=O)NCC4CC4)O[C@@H]2CO3)cc1,inactive,inactive
C[C@H]1[C@@H](O)[C@@H](C)\C=C/C=C\C=C/C=C\C=C/C=C\C=C/[C@@H](O[C@H]2O[C@H](C)[C@@H](O)[C@H](N)[C@@H]2O)C[C@H]2O[C@](O)(C[C@@H](O)C[C@@H](O)[C@@H](O)CC[C@@H](O)C[C@@H](O)CC(=O)O[C@H]1C)C[C@@H](O)[C@@H]2C(=O)O,inactive,inactive
CCC(=O)N[C@@H]1CC[C@@H](CC(=O)OC)O[C@@H]1CO,inactive,inactive
COc1ccc(CN(C)C[C@@H]2OCCCC[C@@H](C)Oc3ccc(NC(=O)Nc4cccc5ccccc45)cc3C(=O)N([C@@H](C)CO)C[C@@H]2C)cc1,inactive,inactive
O=C(N[C@H](c1ccc(Cl)cc1)c1ccccn1)C1CCN(CCOc2ccc(Cl)cc2Cl)CC1,inactive,active
